Results: PubChem BioAssay AID1768 (National Center for Advancing Translational Sciences (NCATS), 2009)
Where “and” joins values, the source holds several entries; their conditions need not be identical. Equal entries are not always repeated. The campaign covered roughly 270,000 compounds. About 620 (0.23%) were called active. The inconclusive results got no clear call from the source; some entries with a clear call stand among them for comparison. The call rests on the fitted dose curve; in most records, active means well fitted inhibition curve with a large enough effect in the polarisation, with a control signal flat (not every such curve was filed as active); inconclusive means small, poorly fitted or top-dose-only effect, or effect the other way, or a change in a side signal; inactive means no such curve, though single readings can be large or run the other way; the % refers to the polarisation. Potencies of inconclusive entries are doubtful fits and often do not repeat. A note “side channel” means that the fit belongs to a control or component signal, not to the main read-out.

The molecules below were run against Menin (Homo sapiens) (UniProt O00255) (assay: qHTS Assay for Inhibitors Targeting the Menin-MLL Interaction in MLL Related Leukemias: Competition With Texas Red Labeled MLL-derived Mutant Peptide). Details: fluorescence polarization; FP activity change, negative = inhibition: at 61.6 µM (top of the series).
Chain of UniProt O00255 (O00255 whole entry, looked up): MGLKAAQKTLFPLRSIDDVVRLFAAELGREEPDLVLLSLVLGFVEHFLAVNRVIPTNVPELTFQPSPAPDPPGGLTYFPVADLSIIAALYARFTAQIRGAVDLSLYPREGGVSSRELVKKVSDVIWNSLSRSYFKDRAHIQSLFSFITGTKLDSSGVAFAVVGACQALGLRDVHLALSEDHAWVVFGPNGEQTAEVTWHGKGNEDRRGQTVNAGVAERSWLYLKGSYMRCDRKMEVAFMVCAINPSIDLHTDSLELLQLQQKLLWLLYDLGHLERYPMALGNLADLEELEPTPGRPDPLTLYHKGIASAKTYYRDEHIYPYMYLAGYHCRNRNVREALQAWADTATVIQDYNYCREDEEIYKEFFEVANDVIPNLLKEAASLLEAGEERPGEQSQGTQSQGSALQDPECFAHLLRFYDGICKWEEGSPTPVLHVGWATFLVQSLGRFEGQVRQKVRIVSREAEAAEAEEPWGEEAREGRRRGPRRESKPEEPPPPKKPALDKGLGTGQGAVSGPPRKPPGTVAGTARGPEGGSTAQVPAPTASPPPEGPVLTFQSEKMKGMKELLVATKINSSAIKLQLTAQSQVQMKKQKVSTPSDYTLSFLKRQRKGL
Potency means the concentration at half of the fitted maximal effect; tags describe the fitted curve by direction and shape or compound fluorescence and quenching.
Wherever FP activity change, negative = inhibition is given: % of control where 0% means no effect.

Potency, inconclusive:
O=C(CSc1ccc(Cl)cc1)Nc1ccccc1N1CCN(C(=O)c2ccccc2)CC1 22.4 µM [fluorescent, side channel, partial curve, poor fit]
O=S(=O)(c1ccc(Cl)c(C(F)(F)F)c1)N1CCN(c2ccccn2)CC1 39.8 µM [inhibitor, single point]
O=c1cc(-c2ccc([N+](=O)[O-])cc2)nc2cc(-c3ccc(F)cc3)[nH]n12 15.8 µM [quencher, side channel, partial curve]
CCC(C)c1ccc(S(=O)(=O)N2CCN(c3ccccn3)CC2)cc1 (centres undefined) 31.6 µM [fluorescent, side channel, single point]
CCc1cc2c3c(c(=O)oc2cc1OC)CCCC3 31.6 µM [inhibitor, single point]
O=[N+]([O-])c1c(Nc2ccccc2O)cc(Cl)c2nonc12 15.8 µM [quencher, side channel, partial curve]
Cc1ccc(CSCc2ccc(C(=O)NC3CCCC3)o2)cc1 14.1 µM [fluorescent, side channel, partial curve]
Cc1ccc(Nc2nc(-c3c(C)nc4ccccn34)cs2)cc1 20 µM [quencher, side channel, single point]
CC(C)C(=O)Nc1c2c(nn1-c1ccc(F)cc1)CSC2 8.91 µM [quencher, side channel, full curve, poor fit]
Clc1ccc2ncnc(NCc3ccc4c(c3)OCO4)c2c1 22.4 µM [fluorescent, side channel, partial curve]
C=CCOc1ccc2c(c1)C(=NO)c1cc(OCC=C)ccc1-2 11.2 µM [quencher, side channel, partial curve]
Cc1cc(NS(=O)(=O)c2ccc(NC(=O)c3cc(-c4cccnc4)nc4ccc(Cl)cc34)cc2)no1 3.16 µM [quencher, side channel, partial curve]
CCN(CC)S(=O)(=O)c1cccc(-c2n[nH]c(=S)n2/N=C/c2ccc(C(=O)OC)cc2)c1 39.8 µM [quencher, side channel, single point]
COc1ccc(-c2nnc(N3CCCCC3)c3ccccc23)cc1 15.8 µM [fluorescent, side channel, partial curve]
CC(C)c1ccc(NC(=O)CSc2ncccc2C(=O)Oc2cccc([N+](=O)[O-])c2)cc1 8.91 µM [inhibitor, partial curve]
O=C(NC(=S)Nc1cccc2c(O)cccc12)c1cccc(Br)c1 28.2 µM [quencher, side channel, partial curve]
CCSc1nsc(NC(=O)Nc2ccccc2F)n1 25.1 µM [quencher, side channel, single point]
Cc1cc(NC(=O)Cc2cc(F)cc(F)c2)no1 39.8 µM [quencher, single point]
Clc1ccccc1C(c1ccccc1)(c1ccccc1)n1ccnc1 10 µM [fluorescent, side channel, partial curve] and 2.24 µM [fluorescent, side channel, partial curve] and 11.2 µM [fluorescent, side channel, partial curve]
CN1CCN(c2ccccc2/C=C2/C(=O)Nc3ccccc32)CC1 31.6 µM [inhibitor, partial curve]
COCCN(C(=O)CCc1ccc(OC)cc1)c1nnc(-c2ccncc2)s1 10 µM [fluorescent, side channel, partial curve, poor fit]
c1ccc(C(c2c[nH]c3ccccc23)c2c[nH]c3ccccc23)nc1 31.6 µM [quencher, side channel, single point]
COc1ccc(Br)cc1CN(C)CC(=O)Nc1c(Cl)ccc(C)c1Cl 6.31 µM [fluorescent, side channel, partial curve]
Oc1ccc(C23CC4CC(CC(C4)C2)C3)cc1O 20 µM [quencher, side channel, partial curve]
Nc1c(C(=O)Nc2ccccc2F)sc2nc(-c3ccco3)ccc12 22.4 µM [quencher, side channel, partial curve]
Cc1ccc2nc(Nc3ccc(Cl)cc3)c3nncn3c2c1 12.6 µM [quencher, side channel, partial curve]
Cc1cccc(C)c1OCc1nnc(NC(=O)CSc2ccc(Cl)cc2)s1 28.2 µM [inhibitor, single point]
Cc1ccc(S(=O)(=O)N/N=C\c2cn(-c3ccccc3)nc2-c2ccccc2)cc1 7.94 µM [quencher, side channel, partial curve]
Cc1[nH]c2ccccc2c1[C@H]1[C@@H](CC#N)C1(C)C 25.1 µM [quencher, side channel, partial curve]
Cc1nc(NC(=O)COc2ccccc2)sc1C(=O)Nc1cccc(Cl)c1 25.1 µM [quencher, side channel, single point]
Cc1cc(NC(=O)c2ccccc2F)n(-c2nc3ccccc3[nH]2)n1 14.1 µM [quencher, side channel, partial curve]
CCc1nc2c(c(=O)c3ccccc3n2C)c(=O)n1CCc1ccc(OC)cc1 0.631 µM [fluorescent, side channel, partial curve, poor fit]
O=C(Nc1ccncc1)Nc1ccc(F)cc1 1.12 µM [quencher, side channel, full curve]
CC(Oc1ccc(Cl)cc1Cl)c1nc(-c2ccc(NC(=O)c3cccnc3)cc2)no1 (centres undefined) 12.6 µM [quencher, side channel, partial curve]
CCOC(=O)N1CCN(C(=O)c2ccc3nc(N4CCCCC4)sc3c2)CC1 17.8 µM [fluorescent, side channel, partial curve]
O=C(Nc1ccc(N2CCCCC2)cc1)c1cncc(Br)c1 20 µM [quencher, side channel, partial curve]
COc1cccc(CN2CC(O)=C(c3nc(-c4ccc(Cl)cc4)cs3)C2=N)c1 15.8 µM [quencher, side channel, partial curve]
Cc1ccc(-n2[nH]c(C)c(/C=N/NC(=O)c3cccc([N+](=O)[O-])c3)c2=O)cc1C 12.6 µM [quencher, side channel, partial curve]
CCCNc1nc(Nc2ccc(C)c(Cl)c2)c2cnn(C)c2n1 25.1 µM [quencher, side channel, partial curve]
Cc1ccc(CSc2nc(-c3ccccc3)c(C#N)c(=O)[nH]2)cc1 28.2 µM [quencher, side channel, single point]
CC(=O)c1ccc(OCC(O)CN2CCN(S(=O)(=O)c3c(C)cc(C)cc3C)CC2)cc1 (centres undefined) 17.8 µM [fluorescent, side channel, partial curve]
O=C(CCN1C(=O)c2ccc([N+](=O)[O-])cc2C1=O)Nc1nccs1 31.6 µM [quencher, side channel, single point]
CCCSC1=N/C(=C\c2ccsc2)C(=O)S1 31.6 µM [quencher, side channel, single point]
CCO[C@H]1OC(C(=O)N2CCN(Cc3ccc4c(c3)OCO4)CC2)=C[C@@H](c2ccc3c(c2)OCO3)[C@@H]1CCCO 2.24 µM [fluorescent, side channel, full curve]
Cc1ccc(NC(=S)N2CCN(S(C)(=O)=O)CC2)cc1Cl 22.4 µM [quencher, side channel, partial curve]
S=c1[nH]nc(-c2cc3c(s2)-c2ccccc2CC3)o1 31.6 µM [quencher, side channel, single point]
O=C(NN=C1CCN(Cc2ccccc2)CC1)c1cccc(S(=O)(=O)Nc2ccccc2Cl)c1 31.6 µM [quencher, side channel, single point]
O=C(/C=C/c1ccccc1Cl)NC(=S)Nc1ccccc1C(=O)NC1CCCCC1 6.31 µM [inhibitor, single point]

Potency, inactive:
COc1cccc(CS(=O)(=O)c2nnnn2-c2ccccc2)c1
CN(C)CCCNC(=O)C(=O)Nc1cc2c3c(c1)CCC(=O)N3CCC2
CCCCCCCC/C=C\CCCCCCCCCCCC(=O)O
CO/N=C/c1ccc(N2CCN(C(=O)c3ccc(Cl)cc3Cl)CC2)c([N+](=O)[O-])c1

FP activity change, negative = inhibition, inactive:
CCCCC[C@]12Cc3ccccc3C(O1)c1c(cc(C)oc1=O)O2 -9.22% [at 11.7 µM]
CC(C)=NOC[C@@H](C)[C@H](OCc1ccccc1)C(C)C -0.132% [at 11.7 µM]
